± gives the standard deviation of the averaged measurements. This is one part of the list.

This assay concerns PfAP2-I AP2 domain 3 (GST-tagged). Briefly: gcPBM binding intensity (ln(normalized median fluorescence intensity)); higher = stronger DNA binding. The essentials:
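In this array assay, P. falciparum DNA-binding domains with a GST tag, expressed in E. coli, were applied for 1 h to primer-extended double-stranded 36-bp intergenic genomic probes and negative controls on an Agilent 4 × 180k array. Bound protein was visualised with Alexa488 anti-GST antibody at 488 nm. Binding intensity is the highest Masliner-normalised natural-log median intensity across replicate spots of either probe orientation.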
As for “AAAAAAGACCATGTTAGTACATAAGATTTTTTTCAT [XGTACX_site4298]”, the “gcPBM binding intensity (ln)” value was found to be 7.53 ± 0.57.

Consider “TTCTAGAAAACTGATCGTACAAATAAATATAGACAC [XGTACX_site2808]”, for which the “gcPBM binding intensity (ln)” value was found to be 8.46 ± 0.16. Under “ATATATTATAATGATACACACAAGAAATAAAATTAC [CACACA_site3095]” stands 8.04 ± 0.54; under “TATAAAATAAAAGTAAATATATATATATATATATAT [TGCATGCA_negctrl_site208]”, 9.29 ± 0.52. “AAAATAGGGATCACGTGTACATATAAAGTGACATAC [XGTACX_site8190]”: the “gcPBM binding intensity (ln)” value was found to be 8.23 ± 0.8. Regarding “AATGCATACACATATTGTACTAAGCCATACAACACA [XGTACX_site305]”, the “gcPBM binding intensity (ln)” value was determined as 7.82 ± 0.69. Under “TATGTAGGTAAAAATTGTACTTTTTTTTTAATATTT [XGTACX_site2303]” stands 7.67 ± 0.28; under “TGACATAATGTGTGTAGTACATATATCGTTATTTGA [XGTACX_site5152]”, 7.71 ± 0.54; under “TGAATAAATATAAAAGGTACACATATAAATATATAT [XGTACX_site6349]”, 7.74 ± 0.58. As to “TAACTCTATTTTTTTGCATGCTGAAGCTATGAGTTT [TGCATGCA_site821]”, the “gcPBM binding intensity (ln)” value was determined as 7.51 ± 0.85. As to “CACAAAAATAGACACACACACATATAAATAAATATA [CACACA_site6598]”, the “gcPBM binding intensity (ln)” value turned out to be 7.67 ± 0.44. For “ATAATATTATGTGTGAATATATCTTTAAAAAGGATA [GTGCAC_negctrl_site15]”, the “gcPBM binding intensity (ln)” value was found to be 7.46 ± 0.53. Under “TATATATTTCATAATACACACGAAAAAAAAAAAAAA [CACACA_site8972]” stands 8.16 ± 0.55; under “ATAAAAATAAAATAAGGTACAGACGAAAAAATTGAA [XGTACX_site5097]”, 7.96 ± 0.7. Turning to “TATATATATAAATACACACACACCGTCCGTGTTAAA [CACACA_site5623]”, the “gcPBM binding intensity (ln)” value was 8.54 ± 0.53. On to “ATATATATTATATAGTGTACCTATGTATAATAATAT [XGTACX_site1683]”, for which the “gcPBM binding intensity (ln)” value came to 7.76 ± 0.4. Under “ATATATATATATATATGTACACATATTATAAAAAAA [XGTACX_site8644]” stands 9.17 ± 0.67. Regarding “GTATTACATGAGGACACACACAAAAAAAATATATAT [CACACA_site769]”, the “gcPBM binding intensity (ln)” value came out at 8.14 ± 0.54.

Regarding “TTATTATAAAAATGTAGTACAATACTTTTTTTTTTT [XGTACX_site732]”, the “gcPBM binding intensity (ln)” value is 7.54 ± 0.078. With “TAATTATTTTAAAAAGTGCATTAAAAGATATTAAAT [GTGCAC_site9694]”, the “gcPBM binding intensity (ln)” value amounted to 11.4 ± 0.56.

Regarding “TATATATCTATAAACACACACCAAAATTTGTGCTTT [CACACA_site7448]”, the “gcPBM binding intensity (ln)” value is 7.79 ± 0.46. On to “ATATACTTTAAAGGTTAAGAAAGAAAAAAAAAAAAA [CACACA_negctrl_site956]”, for which the “gcPBM binding intensity (ln)” value came to 8.27 ± 0.88. Consider “ATATATATATATTATATGCACACGTTAAAATTTCAT [CACACA_site709]”, for which the “gcPBM binding intensity (ln)” value was 9.65 ± 0.16. With “AAATAAAAAGAAAAGAAAAAGAAAATAAAAAGAGAA [XGTACX_negctrl_site14]”, the “gcPBM binding intensity (ln)” value was 7.53 ± 0.67. Regarding “ATAAAATGAACAAACACACACACATATATTTATATA [CACACA_site7181]”, the “gcPBM binding intensity (ln)” value was 7.65 ± 0.44.

As for “GAATAAATAAGATACGTACACACATATACAAAATAT [CACACA_site3660]”, the “gcPBM binding intensity (ln)” value turned out to be 8.04 ± 0.32.

With “AAAAATAAATTTATATATTACAAGAACAAATATAGT [XGTACX_negctrl_site567]”, the “gcPBM binding intensity (ln)” value turned out to be 7.96 ± 0.57. In the case of “TTTTTTTAAAAAAAGGGTACATATATATATTTTTCT [XGTACX_site1066]”, the “gcPBM binding intensity (ln)” value is 7.83 ± 0.5. Under “ATAATATAAACGTATACACACAAGAGAAGCATAAAG [CACACA_site2889]” stands 8.21 ± 0.88; under “AAAAGGAAAGGAAAGGGTACAATCCTATTATATTAT [XGTACX_site8652]”, 7.55 ± 0.75; under “GTCATATATAATTGTTGTACATTTTTATAATTATGT [XGTACX_site8091]”, 7.93 ± 0.44. Turning to “AATTTTCTTAAAATTTGTACGTATATATTTAATATA [XGTACX_site3906]”, the “gcPBM binding intensity (ln)” value worked out at 7.78 ± 0.38.

Consider “AATATAAATGTGATTACACACAACACATTTAAATGT [CACACA_site1212]”, for which the “gcPBM binding intensity (ln)” value was 7.71 ± 0.57.

For the sequence “AAAAAATTATATTATGCACACATCGTTATATATATA [CACACA_site1201]”, the “gcPBM binding intensity (ln)” value was determined as 9.85 ± 0.12. As to “TATATATACTATAACACACATACACCCAAAAAAAAA [CACACA_site536]”, the “gcPBM binding intensity (ln)” value is 8.34 ± 0.33. Regarding “CTTATACATATATATAGTACATATATCATTTTTATG [XGTACX_site4462]”, the “gcPBM binding intensity (ln)” value is 7.75 ± 0.4. As for “TAAACAGACATATAAACACACATACATACATACATA [CACACA_site7215]”, the “gcPBM binding intensity (ln)” value turned out to be 8 ± 0.68. As to “TTTCATGACAATGTTTGTACATAATAAAATATATTT [XGTACX_site7039]”, the “gcPBM binding intensity (ln)” value is 7.76 ± 0.33. With “TTAAAAAGATGTCACTGTACATAAAACATAAAATAT [XGTACX_site2886]”, the “gcPBM binding intensity (ln)” value was determined as 8.1 ± 0.54. “GAAGAGACTTAGAAAACACACATACATAAGATAATT [CACACA_site5333]”: the “gcPBM binding intensity (ln)” value was found to be 7.58 ± 0.6. Turning to “AAAAAAAAAAAAAAAACACACATAAAACTATAATAA [CACACA_site7758]”, the “gcPBM binding intensity (ln)” value turned out to be 8.63 ± 0.52. For the sequence “ATATGTATCTCATCGTGTACATGTATATAATATATA [XGTACX_site4139]”, the “gcPBM binding intensity (ln)” value stood at 7.89 ± 0.57. Consider “TTAGAAAAATTATATATACACACTTATATTTATATA [CACACA_site2821]”, for which the “gcPBM binding intensity (ln)” value came out at 7.28 ± 0.4. “ATATATCAAAATAATTGTACAAATTTTATATAATTT [XGTACX_site7249]”: the “gcPBM binding intensity (ln)” value turned out to be 7.64 ± 0.38. Under “ATATAGTAAAGTTATACACACATGAATTTTCCCATG [CACACA_site6923]” stands 7.68 ± 0.79.

Values taken from the supplement of paper PMC11417369.
